Assay results as given in PubChem BioAssay (NCI).
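1) Cells in 96-well plates. 2) Compound, 48 h, 5 concentrations. 3) Linear interpolation between surrounding doses. 4) Unreached endpoint = highest concentration. GI50: concentration for 50% inhibition of growth. TGI denotes the concentration required for complete inhibition of growth.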

Test system: NCI-H322M lung
Experiment: NCI tumour cell line growth inhibition, 48 h

Row | SMILES | GI50 | TGI
1 | Cc1cc(OCc2nn(CN3CCN(C)CC3)c(=S)n2/N=C/c2ccc(F)cc2)ccc1Cl | 16.4 µM | 36.8 µM
2 | C/C=C1/C(=Cc2[nH]c(C=c3[nH]/c(=C/C4=NC(=O)C(CC)=C4C)c(C)c3CCC(=O)O)c(CCC(=O)O)c2C)NC(=O)C1C (configuration not stated) | – | > 50 µM
3 | Cc1ccc(S(=O)(=O)NNC(=O)Nc2ccc([N+](=O)[O-])cc2)cc1 | – | > 100 µM
4 | CC(=O)OCC1=CC2CCC3C(C)(CCC[C@]3(C)COC(C)=O)C23CC[C@H]1C3 (some centres not stated) | – | > 100 µM
5 | FC(F)(F)c1nc(Br)[nH]c1C(F)(F)F | – | > 100 µM
6 | CC(C)(C)OC(=O)C1/C(=C/CBr)CN1C(=O)OC(C)(C)C (configuration not stated) | – | 30.9 µM
7 | O=C(NCc1ccccc1)C1C(=O)C(=O)N(Cc2ccccc2)C1=O (configuration not stated) | – | > 100 µM
8 | CC(=O)[CH-]C(=O)c1ccccc1.CC(=O)[CH-]C(=O)c1ccccc1.CC(=O)[CH-]C(=O)c1ccccc1.[Br-].[Zr+4] | > 100 µM | > 100 µM
9 | CCOP(=O)(OCC)C(NC(c1ccccc1)c1ccccc1)c1ccc(C(C)C)cc1 (configuration not stated) | 5.13 µM | 18.7 µM
10 | CCOC(=O)c1cc2c(n1Cc1cc(OC)cc(OC)c1)-c1oncc1CC2 | 0.505 µM | > 100 µM
11 | CCOc1nc2sc3c(c2c(=O)n1CCSSCCn1c(OCC)nc2sc4c(c2c1=O)CCCC4)CCCC3 | – | > 100 µM
12 | CN1/C(=C/C=C/c2n(Cc3ccc4ccccc4c3)c(Cl)c(Cl)[n+]2Cc2ccc3ccccc3c2)Oc2ccccc21 | 0.617 µM | 1.87 µM
13 | CCOC(=O)/C(=C\c1c(C)[nH]c2ccccc12)P(=O)(OCC)OCC | – | > 100 µM
14 | C[C@]12CC[C@H](O)CC1=CC[C@@H]1[C@@H]2CC[C@]2(C)NC(=O)/C(=C\c3ccccc3)C[C@@H]12 | – | 28.8 µM
15 | CCOC(=O)C1=NNC(C(=O)c2ccccc2)C1c1ccccc1 (configuration not stated) | – | 33.3 µM
16 | CCOC(=O)CCc1ccc(NC(=O)/C=C/c2ccc([N+](=O)[O-])o2)cc1 | – | 5.05 µM
17 | CCCC(C(=O)Nc1cccc2[nH]cnc12)C(=O)OCC (configuration not stated) | – | > 100 µM
18 | COC(=O)[C@@H]1[C@H]2CC[C@]3(C)[C@@H](OC(C)=O)CC[C@H]3[C@@H]2CC[C@H]1C(C)=O | – | > 100 µM
19 | O=C1CCc2ccc(O)c(c2)Oc2ccc(cc2)[C@@H]2O[C@@H]2CO1 | – | > 100 µM

Row | SMILES | GI50 | TGI
20 | C(=C\c1ccc(OCC2CO2)cc1)/C1=NCOC1 (configuration not stated) | 19.8 µM | 38.8 µM
21 | N#CC(C#N)=Cn1c(=S)[nH]c2ccc([N+](=O)[O-])cc21 | – | > 100 µM
22 | COC(=O)C1=COC2OC3CC1C2C(C)O3 (configuration not stated) | – | > 100 µM
23 | S=C1Cc2c(-c3ccccc3)cc(-c3ccc(Cl)cc3)nc2-c2ccccc2N1 | – | 13.9 µM
24 | COc1ccc(NC(/C(C(=O)C(=O)/C=C(\O)c2ccccc2)=C(\O)c2ccccc2)c2ccc(OC)cc2)cc1 (configuration not stated) | – | > 100 µM
25 | COC1(C)CNCC(C)(C)NC(=O)C(C)(OC)CNCC(C)(C)NC1=O (configuration not stated) | – | > 100 µM
26 | O=C1C2C3C=C4c5ccccc5N(c5ccccc5)C4([C@@H]2C(=O)N1c1ccc(F)cc1)[C@H]1C(=O)N(c2ccc(F)cc2)C(=O)[C@@H]31 (some centres not stated) | – | > 100 µM
27 | CC(C)(C)OC(=O)N1Cc2cc3ccccc3nc2C1CO (configuration not stated) | > 100 µM | > 100 µM
28 | C/C(=N/N)c1sc(-c2nc(C)c(/C(C)=N\N)s2)nc1C | – | > 100 µM
29 | Oc1cccc2ccc(Br)nc12 | – | > 100 µM
30 | N#Cc1c(N)c2c(c(-c3ccccc3)c1-c1ccccc1)C(=O)N(O)C2=O | – | > 100 µM
31 | NC(=O)c1ncn2c(=O)n(CCCl)nnc12 | – | 500 µM
32 | c1cc2c3ccsc3c3sccc3c2s1 | – | > 100 µM
33 | CCC(C(=O)[C@@H](C)[C@@H](O)[C@H](C)[C@@H]1O[C@@H]([C@@H](CC)C(=O)ONC(=O)c2ccccc2)CC[C@@H]1C)[C@H]1O[C@]2(C=CC(=O)[C@]3(CC[C@@](C)([C@H]4CC[C@](O)(CC)[C@H](C)O4)O3)O2)[C@H](C)C[C@@H]1C (some centres not stated) | 1.85 µM | > 22.7 µM
34 | O=C(CC1Sc2ccccc2NC1=O)NNc1ccc(F)cc1 (configuration not stated) | > 100 µM | > 100 µM
35 | COC(=O)/C(C#N)=C/c1cc(C(C)(C)C)c(O)c(C(C)(C)C)c1 | – | > 30 µM
36 | CCCCNCCCCCNc1cc(OC)cc2cccnc12 | 26.9 µM | 78.2 µM
37 | CC(=O)N1N=C(c2ccc3ccccc3c2O)CC1c1ccc(N(C)C)cc1 (configuration not stated) | – | > 100 µM
